# Assay results: PubChem BioAssay AID463173 (ICCB-Longwood Screening Facility, Harvard Medical School, 2010)
# About 1,700 (3.3%) of roughly 52,000 compounds were called active. No stated cut-off is given here; in the data, active means survival mostly below about 52% (no sharp cut-off); inactive means mostly above about 56%. This is one part of the list.
# Test system: Wild type
# Assay: S. aureus survival, RN4220 and DeltatarO strains – OD600, teichoic acid synthesis inhibitors, primary screen (AID 463173)
# Conditions: S. aureus RN4220 wild type/DeltatarO growth, OD600, 18 h, stronger effect = lower value, screened at 18.75 µg/mL (by protocol)
row,Structure (SMILES),survival
1,O=C(CCSCCc1ccccn1)Nc1ccccc1C(F)(F)F,inactive: 89%
2,CC(=O)Nc1ccc(C(=O)N2CCOCC2)cc1,inactive: 126%
3,CCc1ccccc1NC(=O)Cn1cc(C(=O)c2ccncc2)c(=O)c2cc(C)ccc21,inactive: 75%
4,O=C(CCSCc1cccc(F)c1)NCCc1ccccc1,inactive: 136%
5,Cc1ccc(N2CC(C(=O)NCCS(=O)(=O)N3CCN(c4ccc(F)cc4)CC3)CC2=O)cc1 (configuration not stated),inactive: 72%
6,O=C1NN(c2ccccc2)C(=O)/C1=C\c1ccccc1,inactive: 105%
7,O=C(NCc1ccccc1)C1CCCN1S(=O)(=O)c1ccc(Cl)cc1 (configuration not stated),inactive: 99%
8,CC1=C(C(=O)Nc2cccc(F)c2)C2(CCCCCC2)OC1=O,inactive: 82%
9,COCCCNc1oc(-c2ccc(COc3ccccc3C)o2)nc1C#N,inactive: 66%
10,COc1cc(OC)c(NC(=O)Cn2c(=O)nc(-c3ccccc3)c3ccccc32)cc1Cl,inactive: 68%
11,Cc1nnc(N(Cc2ccco2)C(=O)c2cccc(C#N)c2)s1,inactive: 108%
12,Cc1c(Cl)cccc1-c1ccc(C(=O)Nc2ccc3oc(-c4cccnc4)nc3c2)o1,inactive: 79%
13,COc1cccc(OCCn2c(-c3ccc(Cl)cc3)nc3ccccc3c2=O)c1,inactive: 63%
14,COc1cccc(Cn2c(=O)n(-c3cc(C)cc(C)c3)c(=O)c3oc4ccccc4c32)c1,inactive: 84%
15,CCOc1cc(CNC(=O)c2cc(-c3ccc(Cl)s3)nc3ccccc23)ccc1OC,inactive: 93%
16,CCCC(=O)C1=C(N(C)c2ccccc2)CC(C)(C)CC1=O,inactive: 115%
17,COc1ccc(CCNC(=O)Cn2c(=O)cc(C(F)(F)F)c3c(C)nn(C)c32)c(OC)c1,inactive: 99%
18,CCc1ccc(C2=CC(c3cccc(OC)c3OC)n3c(nc4ccccc43)N2)cc1 (configuration not stated),inactive: 55%
19,C=CCOc1cccc(CNn2nnnc2N)c1,inactive: 102%
20,CCc1ccc(NC(=O)C2CCN(c3ccc(Sc4ccc(C)cc4)nn3)CC2)cc1,inactive: 68%
21,Cc1ccc(N2CCN(S(=O)(=O)c3nnc(NC(=O)c4cccc(F)c4)s3)CC2)cc1,inactive: 65%
22,CCCCCOc1ccc(C(=O)CCN2CCOCC2)cc1,inactive: 35%
23,O=C(Cn1cccc1C(=O)c1ccccc1)NCc1ccc(Cl)cc1,inactive: 89%

row,Structure (SMILES),survival
1,COc1ccc(NC(=O)CNC(=O)Cn2ccc3ccccc3c2=O)c(OC)c1,inactive: 85%
2,Nc1c(C(=O)N2CCOCC2)sc2nc3c(cc12)CCCC3,inactive: 99%
3,CCCN1CCN(CCCNC(=O)c2cc3c(=O)[nH]c4ccccc4c3s2)CC1,inactive: 86%
4,CC1CCC2C(C1)Nc1c(C(=O)O)cccc1C2(C)C (configuration not stated),inactive: 92%
5,Cc1ccc(CNC(=O)c2cnc(N3CCCC3)nc2C)cc1,inactive: 65%
6,CN(C(=O)CSc1nc2ccc(NC(=O)c3ccco3)cc2s1)c1ccccc1,inactive: 69%
7,COc1cccc(OC(=O)N2CCOCC2)c1,inactive: 124%
8,CCc1ccccc1NC(=O)c1nnn(CC(=O)Nc2c(C)cc(C)cc2C)c1N,inactive: 98%
9,N#Cc1ccccc1NC(=O)CSC1=NCCS1,inactive: 105%
10,Cc1cc(C)c2c(NC(=O)c3ccccc3Cl)c(C(=O)Nc3ccc(C)c(C)c3)sc2n1,inactive: 64%
11,COc1cc(CNCCSc2nnnn2C)ccc1OCc1ccccc1,inactive: 84%
12,CCC1=Nc2cc(C(=O)NC3CCCC3)ccc2Sc2ccc(Cl)cc21,inactive: 77%
13,Cc1ccc2nc3sc(C(=O)Nc4ccc(F)cc4)cc3cc2c1,inactive: 32%
14,CCOC(=O)c1cc(S(=O)(=O)N2CCN(c3cccc(C)c3)C(C)C2)[nH]n1 (configuration not stated),inactive: 76%
15,O=C(CSC1=NCCS1)OCN1C(=O)c2ccccc2C1=O,inactive: 105%
16,COc1ccc(N2CCN(C(=O)c3c(C)oc4ncn(CC(C)C)c(=O)c34)CC2)cc1,inactive: 56%
17,COC(=O)c1ccc(NC(=O)C(C)N2Cc3ccccc3C2=O)cc1 (configuration not stated),inactive: 53%
18,COc1ccc2c(=O)c(NC(=O)Nc3ccc(F)cc3F)c[nH]c2c1,inactive: 118%
19,CCn1cc(C(=O)N2CCN(c3ccccc3OC)CC2)c2cc(OC)c(OC)cc2c1=O,inactive: 70%
20,CCN1C(=O)C(C2SC(=S)N(CC)C2=O)SC1=S (configuration not stated),inactive: 98%
21,Cc1cc(C)c2c(n1)sc1c(N3CCN(CCO)CC3)ncnc12,inactive: 111%
22,CCc1ccc(NC(=O)c2ccc(CNS(=O)(=O)c3ccc4c(c3)C(C)(C)C(=O)N4C)cc2)cc1,inactive: 83%
23,CCOc1cccc2sc(=NC(=O)c3ccc(S(=O)(=O)N4CCOCC4)cc3)n(C)c12,inactive: 83%

row,Structure (SMILES),survival
1,Nc1ccc(S(=O)(=O)N2CCCC(C(=O)O)C2)cc1 (configuration not stated),inactive: 103%
2,CCC(Oc1ccccc1)C(=O)Nc1nnc(S(=O)(=O)N2CCCC2)s1 (configuration not stated),inactive: 108%
3,CCc1ccc(OCC(=O)Nc2c(C(=O)c3ccc(Br)cc3)oc3ccccc23)cc1,inactive: 70%
4,CC(=O)N1CCN(CCN=CC2=C(O)CC(c3ccco3)CC2=O)CC1 (configuration not stated),inactive: 101%
5,COc1ccc(CCNC(=O)CCCCn2c(=O)c3ccccc3n(Cc3cccc(C)c3)c2=O)cc1OC,inactive: 96%
6,CCOC(=O)c1c(NC(=O)C(C)Oc2ccccc2F)sc(C(C)=O)c1C (configuration not stated),inactive: 65%
7,CCOc1ccc(CCNc2ncnc3onc(C)c23)cc1OCC,inactive: 83%
8,CCOC(=O)c1cnc2c(OC)cccc2c1N1CCN(c2ccccc2F)CC1,active: -14%
9,CCOc1ccccc1NC(=O)C1CCCN(C(=O)Nc2ccccc2)C1 (configuration not stated),inactive: 107%
10,c1ccc(N=C(c2cccs2)N2CCOCC2)cc1,inactive: 107%
11,CCCCN(CCCC)CCn1cnc2c([nH]c3ccc(OC)cc32)c1=O,inactive: 120%
12,c1ccc2sc(N3CCN(Cc4nnnn4C4CCCC4)CC3)nc2c1,inactive: 104%
13,COc1ccc(NC(=O)c2oc3ccccc3c2NC(=O)c2cc(=O)c3ccccc3o2)cc1,inactive: 88%
14,COc1ccc(C(=O)Nc2ccc3c(c2)CCCN3S(=O)(=O)c2ccc(C)cc2)cc1,inactive: 88%
15,COc1ccc(CNC(=O)c2ccc(-c3nc(CSc4ccccc4)c(C)o3)cc2)cc1,inactive: 59%
16,O=C(Nc1ccccc1)NC1(C(=O)N2CCN(C(=O)c3ccco3)CC2)CCCCC1,inactive: 107%
17,CCc1ccc(-c2nc(CN3CCCC(C(=O)NCc4ccccc4Cl)C3)c(C)o2)cc1 (configuration not stated),inactive: 55%
18,Cc1ccc2c(c1)-c1nc(-c3ccccc3)cc(-c3ccccc3)c1CO2,inactive: 79%
19,CCCN(CCC)S(=O)(=O)c1ccc(C(=O)N2CCC(=O)c3ccccc32)cc1,inactive: 109%
20,O=C(NCCc1csc(-c2cccc(F)c2)n1)c1ccco1,inactive: 69%
21,CCOc1ccc(N(CC)S(=O)(=O)N2CCCC(C(=O)NCc3ccccc3OCC)C2)cc1 (configuration not stated),inactive: 96%
22,COc1cc(-c2cc3n(C)c(C)c(CCC(=O)NC4CCC(C)CC4)c(=O)n3n2)cc(OC)c1OC (configuration not stated),inactive: 78%
23,Cc1nn2c(=O)cc(COC(=O)c3ccccc3NC(=O)C3CCCCC3)nc2s1,inactive: 102%

row,Structure (SMILES),survival
1,COc1ccc(CC(CC(=O)O)C(=O)NCc2ccccc2)cc1 (configuration not stated),inactive: 114%
2,O=C(NC1CCCC1)c1ccc2c(c1)N(Cc1c(F)cccc1Cl)C(=O)c1ccccc1S2,inactive: 137%
3,COc1cc(C(=O)N(CCCN(C)C)c2nc3c(OC)cccc3s2)cc(OC)c1OC,inactive: 124%
4,O=C(CSc1nc2c([nH]c3ccccc32)c(=O)n1-c1ccccc1)Nc1ccccc1C(F)(F)F,inactive: 72%
5,NC(=O)COc1ccc(-c2noc(COc3ccc(Cl)cc3)n2)cc1,inactive: 144%
6,CCOC(=O)C1=C(CN2CCN(c3ccc(Cl)cc3)CC2)NC(=O)NC1c1ccc(F)cc1 (configuration not stated),inactive: 65%
7,Cc1cc2ncn(S(=O)(=O)c3ccc(S(=O)(=O)NCC4CCCO4)cc3)c2cc1C (configuration not stated),inactive: 103%
8,COc1cccc2c1Oc1ncccc1N(C(=O)CCC(=O)NCc1ccc(OC(C)C)cc1)C2,inactive: 84%
9,Cc1nn(CC(=O)NC(C)c2ccccc2)c(=O)c2cc3occc3n12 (configuration not stated),inactive: 84%
10,NS(=O)(=O)c1ccc(CCNC(=O)Cn2c(=O)c3cccn3c3ccc(F)cc32)cc1,inactive: 91%
11,COc1ccc2c(c1)CC(C(=O)Nc1c(C)cc(C)cc1C)CO2 (configuration not stated),inactive: 63%
12,O=C(Nc1cccc(F)c1)C1CCN(c2nc3ccccc3nc2C(F)(F)F)CC1,inactive: 88%
13,Cc1ccc(-n2c3c(c(=O)[nH]c2=O)C(NC(=O)C(C)(C)C)(C(F)(F)F)C(=O)N3)cc1 (configuration not stated),inactive: 68%
14,CCc1ccccc1-n1nnc(-c2nc(-c3ccccc3F)no2)c1C,inactive: 124%
15,COc1cccc(C(=O)NCC(c2ccc3c(c2)OCO3)N2CCN(C)CC2)c1 (configuration not stated),inactive: 121%
16,Cn1c(=O)n(C)c2cc(NS(=O)(=O)c3ccc(Cl)cc3)c(NCc3ccccc3)cc21,inactive: 134%
17,Cc1[nH]c2ccccc2c1C1(O)C(=O)Nc2ccc(Cl)cc21 (configuration not stated),inactive: 62%
18,COc1cc(CNCCCSc2nnnn2C)cc(Br)c1OC,inactive: 86%
19,COc1cccc(NC(=O)CSC2=Nc3ccccc3C3=NC(CCC(=O)NC4CCCCC4)C(=O)N23)c1 (configuration not stated),inactive: 77%
20,CC(Nc1ccccc1)c1ccncc1 (configuration not stated),inactive: 110%
21,COc1ccc(OC)c(NC(=O)CCCOc2cc(=O)n(C)c3ccccc23)c1,inactive: 64%
22,COc1ccc(NC(=O)CSc2nc3ccccc3n2CC(=O)NCc2ccc(F)cc2)cc1,active: -6%
23,CC(C)NC(=O)c1ccc(OC2CSC2)cc1,inactive: 103%
